In article PMC4336329 (PLoS ONE, 2015):
In all, about 310,000 compounds went through this assay and about 14,000 (4.5%) showed an effect of 50% or more. Effects have a minus sign here. The list shows a part of the results.

Target: human ether-à-go-go-related gene (hERG) potassium channel (human, UniProt Q12809)
Test: primary screen, population patch clamp on CHO cells stably expressing hERG
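Note: peak tail current of the secondary pulse compared with the same well before compound.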

human ether-à-go-go-related gene (hERG) potassium channel, sequence (Q12809 whole entry, looked up): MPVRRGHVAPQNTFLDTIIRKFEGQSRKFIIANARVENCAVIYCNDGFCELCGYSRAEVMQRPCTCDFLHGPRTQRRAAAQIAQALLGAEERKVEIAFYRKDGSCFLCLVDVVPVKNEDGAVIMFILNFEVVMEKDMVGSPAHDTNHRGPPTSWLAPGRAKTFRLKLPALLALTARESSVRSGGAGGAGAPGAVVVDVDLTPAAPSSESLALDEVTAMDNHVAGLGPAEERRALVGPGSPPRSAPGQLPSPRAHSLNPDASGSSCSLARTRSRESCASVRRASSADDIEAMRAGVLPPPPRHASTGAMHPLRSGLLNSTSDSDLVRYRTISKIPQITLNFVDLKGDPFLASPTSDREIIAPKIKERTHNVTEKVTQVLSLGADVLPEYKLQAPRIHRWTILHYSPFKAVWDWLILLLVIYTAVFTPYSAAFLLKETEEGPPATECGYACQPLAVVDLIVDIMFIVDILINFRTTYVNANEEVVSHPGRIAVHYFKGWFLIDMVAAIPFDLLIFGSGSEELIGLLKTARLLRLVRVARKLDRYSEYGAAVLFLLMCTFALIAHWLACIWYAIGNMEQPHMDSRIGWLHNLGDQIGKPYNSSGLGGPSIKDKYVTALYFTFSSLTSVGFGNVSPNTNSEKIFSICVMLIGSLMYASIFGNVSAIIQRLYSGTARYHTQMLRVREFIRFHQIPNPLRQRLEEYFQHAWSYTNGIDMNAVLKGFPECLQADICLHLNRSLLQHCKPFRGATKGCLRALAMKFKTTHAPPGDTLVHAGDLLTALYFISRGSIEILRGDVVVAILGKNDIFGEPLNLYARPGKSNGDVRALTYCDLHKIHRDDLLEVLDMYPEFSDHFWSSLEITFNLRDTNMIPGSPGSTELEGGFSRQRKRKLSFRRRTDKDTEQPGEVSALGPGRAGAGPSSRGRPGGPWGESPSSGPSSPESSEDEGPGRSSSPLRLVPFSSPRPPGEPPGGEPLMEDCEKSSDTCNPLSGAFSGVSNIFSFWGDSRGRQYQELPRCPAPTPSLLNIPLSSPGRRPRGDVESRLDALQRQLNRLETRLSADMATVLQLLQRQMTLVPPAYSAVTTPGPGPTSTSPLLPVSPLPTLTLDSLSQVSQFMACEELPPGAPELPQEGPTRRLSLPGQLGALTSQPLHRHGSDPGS

Compound | hERG current change (%, negative = inhibition) at 10uM [%]
O=[N+]([O-])c1cccc(-c2cc(-c3cc(Br)ccc3O)[nH]n2)c1 | 20.2
N#CC(c1ccccc1)c1ccc(C(=O)c2ccc(F)cc2)cc1 (stereo not shown) | -11.4
COc1cc(-c2cc(C(F)(F)F)n3ncc(C(=O)O)c3n2)cc(OC)c1OC | 13.2
Cc1ccc(C)c(-c2cc(C(=O)NNC(=S)NCC(C)C)c3ccccc3n2)c1 | 12.9
Cc1cc(-c2nsc(=O)o2)c(S(C)(=O)=O)s1 | 10.7
COc1ccc2c(c1)[nH]c(=O)c1sc3ccccc3c12 | 10.9
CCOc1ccc(NC(=O)CSc2nncc(=O)[nH]2)cc1 | 16.6
CCC(C)(C)NC(=O)C(c1ccc(C)o1)N(C(=O)c1csnn1)c1cccc(F)c1 (stereo not shown) | -4.59
COc1cc(OC)c(C2SCCN2S(=O)(=O)c2ccc(F)cc2)cc1OC (stereo not shown) | 15.9
COc1cc2cccc(OC)c(=O)c2c(OC)c1OC | 10.9
Cc1ccccc1NC(=S)/C(=C(\[O-])c1cc(C)n(Cc2ccccc2Cl)c1C)[n+]1ccccc1 | 11.6
CCOC(=O)C1=C(C)C(c2ccccc2O)NC(=O)N1 (stereo not shown) | 3.36
C=CCN(CC=C)C(=O)CN1C(=O)NC(Cc2c[nH]c3ccccc23)C1=O (stereo not shown) | 17
Cc1ccc(-c2nc3ccsc3c(=O)[nH]2)cc1 | 20.8
c1csc(-c2nnc(NC3CCCCC3)c3ccccc23)c1 | -75.4
Cc1cc(C)c(COCc2cc(/C=N/O)c(C)cc2C)cc1/C=N/O | 6.96
COc1ccc(NC(=O)c2c(C)nn(-c3ccccc3)c2Cl)cc1 | 20.4
CCCCc1ccc(NC(=O)C(=O)NCCN2CCN(Cc3ccc([N+](=O)[O-])cc3)CC2)cc1 | -66.7
Cc1ccc(S(=O)(=O)N2CCCC2CNC(=O)C(=O)NC2CC2)cc1 (stereo not shown) | 3.03
COc1ccccc1OCCNC(=O)c1ccccc1C | 12.1
CCC(=O)Nc1ccc(C(=O)NNC(=O)c2cccs2)cc1 | 1.76
O=C(Nc1cccnc1)c1ccc([N+](=O)[O-])cc1Cl | 1.29
CCOC(=O)Cn1c(=N)n(Cc2ccccc2F)c2ccccc21.Cl | -28.3
COc1ccc(Nc2nc(S(=O)(=O)c3ccc(C)cc3)c(Cl)s2)cc1 | 15.4
CC(C)CN(C(=O)c1ccc([N+](=O)[O-])s1)c1c(N)n(Cc2ccccc2)c(=O)[nH]c1=O | 10.3
